Results on 23 sequences are retold here after article PMC7819943, “Rice protein-binding microarrays: a tool to detect cis-acting elements near promoter regions in rice”.

This is one part of the list.

The assay deals with T1, OsWOX13 (Oryza sativa, UniProt Q5QMM3 1-267).
T1 sequence: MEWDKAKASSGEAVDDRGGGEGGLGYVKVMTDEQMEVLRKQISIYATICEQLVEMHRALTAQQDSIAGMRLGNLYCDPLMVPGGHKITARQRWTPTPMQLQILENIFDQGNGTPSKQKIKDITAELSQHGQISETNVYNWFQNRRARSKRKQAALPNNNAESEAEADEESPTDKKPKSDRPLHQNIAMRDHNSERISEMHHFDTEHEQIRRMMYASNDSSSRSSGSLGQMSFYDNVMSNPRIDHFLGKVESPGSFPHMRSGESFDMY
The assay is described as follows: protein-binding microarray (RPBM); PBS, 2% BSA, 51.3 ng/ul salmon testes DNA, 50 uM zinc acetate, 200 nM TF, 25 C, 1 h; high values mean tight binding. As to conditions: protein: recombinant; tags: N-terminal polyhistidine and DsRed monomer fusion (pET32a); label: CyDye5-dUTP incorporated in the synthesized complementary strand; 3' TTTTT single-stranded linker to array surface; dsDNA, one strand shown. The gist of the method:
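Per-feature fluorescence intensity (arbitrary units), read on an Axon 4000B scanner, is the binding signal. Transcription factors carrying an N-terminal polyhistidine tag and DsRed fusion were expressed in E. coli BL21-CodonPlus and purified on Ni–NTA. A custom Agilent array, made double-stranded by primer extension with Cy5-dUTP and blocked with 2% BSA, was incubated with 200 nM protein in PBS, 2% BSA, salmon testes DNA and 50 µM zinc acetate at 25 °C for 1 h and then washed.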
Take “CGTTATGGTATGATTAATTAATTATCACCCGGAGGAACTTCGGAGTCACCTAGTGCAG”: the binding signal was 32300 fluorescence intensity (a.u.).
The result for “TAGTAATTGCATTAGTTTGTCATGGGCACATCATGCCACTCGGAGTCACCTAGTGCAG” reads 13000 fluorescence intensity (a.u.).
The result for “TTATTACAATTTAATTATATTTTAATTATTCTAAAAGCTTCGGAGTCACCTAGTGCAG” reads 20200 fluorescence intensity (a.u.); that for “ACTGACGGATATATGATCAGTTCACCCCTTCCGGCCTTCGCGGAGTCACCTAGTGCAG”, 7910 fluorescence intensity (a.u.).
For “ATTAATTTGTGTGCGAAACTTACATGTGGGTCCCATGGGTCGGAGTCACCTAGTGCAG” the value was 25300 fluorescence intensity (a.u.).
With “GCTTTGGGTCTTGGTTGATTGATTTATTTATAGGCGCGGTCGGAGTCACCTAGTGCAG”, the binding signal is 22000 fluorescence intensity (a.u.).
For “TTAATTGCATAGATTGCGACTAATTTACAAGATGAATCTTCGGAGTCACCTAGTGCAG” the value was 31400 fluorescence intensity (a.u.); for “CTGTTCACACGGATTGATCATTGATGGATCCATGCTGATGCGGAGTCACCTAGTGCAG”, 9220 fluorescence intensity (a.u.); for “CTACATAATATTATTAATTTGTGTGCGAAACTGCATGTGGCGGAGTCACCTAGTGCAG”, 13100 fluorescence intensity (a.u.).
For “ATTACATATAAATTATATTGTAATTACATATAAGTTACAACGGAGTCACCTAGTGCAG” the value was 11700 fluorescence intensity (a.u.); for “GGAATTGCGTGATTGAATTCAAAATTGGGATGATAAATATCGGAGTCACCTAGTGCAG”, 16200 fluorescence intensity (a.u.); for “GTAATTGAAGTCAGAGTCAAGTTTGAAGTCTTTGAATATGCGGAGTCACCTAGTGCAG”, 18300 fluorescence intensity (a.u.).
The result for “TATTGCTAATTAGCCCGTTAAAACAGCTCGATCAGGGCCCCGGAGTCACCTAGTGCAG” reads 32100 fluorescence intensity (a.u.).
Turning to “CAAATGAAAGAGAGACAGAGCGCATTAGAACACAAAAGTTCGGAGTCACCTAGTGCAG”, the binding signal was 3640 fluorescence intensity (a.u.).
For “GATCATGATGGTATATTCTACATCTTGTTACAGCTATGTGCGGAGTCACCTAGTGCAG” the value was 3140 fluorescence intensity (a.u.); for “GGCTATTTCGTCCCAATTACCAATGGGCTAATTTTGGATCCGGAGTCACCTAGTGCAG”, 5000 fluorescence intensity (a.u.).
As for “AGACAATCAAGCCAAATGTTCAATTGATGGCTACGTCGCTCGGAGTCACCTAGTGCAG”, the binding signal is 7960 fluorescence intensity (a.u.).
For “GATACTGTCGACGCTTAATTAGATTGTACTTTATACCACGCGGAGTCACCTAGTGCAG” the value was 5570 fluorescence intensity (a.u.); for “TCAAAATTTGATGGCAAAACAGGTAAATTCAAACGAATTTCGGAGTCACCTAGTGCAG”, 10500 fluorescence intensity (a.u.).
The result for “GATGATTTATATGATTGCAAGTGGTTAAATATATAATTATCGGAGTCACCTAGTGCAG” reads 22400 fluorescence intensity (a.u.); that for “TCAATTAATTAATTAATTAACTACACTTTCACACGAGTCTCGGAGTCACCTAGTGCAG”, 52700 fluorescence intensity (a.u.).
The result for “ATTAAATTGCCTATGGGCTCACCGGCCAATAACAAACTCCCGGAGTCACCTAGTGCAG” reads 17500 fluorescence intensity (a.u.); that for “GTAAAATTGATGTTACTAGATTTATCATTAATCAAACTATCGGAGTCACCTAGTGCAG”, 14700 fluorescence intensity (a.u.).
